Results as given in paper PMC6919601, “Identification of Plasmodium dipeptidyl aminopeptidase allosteric inhibitors by high throughput screening” (PLoS ONE, 2019).
Hit rate of the full screen: of about 110,000 compounds, about 230 (0.21%) showed an effect of 50% or more. The list shows a part of the results.

Target: DPAP1 (Plasmodium falciparum, UniProt Q8IIJ9)
Assay: primary screen, percent inhibition; read by cleavage of a fluorogenic dipeptide substrate; higher = more effect of the substance
Parameters: species or system P. falciparum D10 trophozoite lysates; single well
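Also: 30 min substrate incubation versus DMSO and 10 µM JCP410 controls.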

Chain of DPAP1 (Q8IIJ9 whole entry, looked up): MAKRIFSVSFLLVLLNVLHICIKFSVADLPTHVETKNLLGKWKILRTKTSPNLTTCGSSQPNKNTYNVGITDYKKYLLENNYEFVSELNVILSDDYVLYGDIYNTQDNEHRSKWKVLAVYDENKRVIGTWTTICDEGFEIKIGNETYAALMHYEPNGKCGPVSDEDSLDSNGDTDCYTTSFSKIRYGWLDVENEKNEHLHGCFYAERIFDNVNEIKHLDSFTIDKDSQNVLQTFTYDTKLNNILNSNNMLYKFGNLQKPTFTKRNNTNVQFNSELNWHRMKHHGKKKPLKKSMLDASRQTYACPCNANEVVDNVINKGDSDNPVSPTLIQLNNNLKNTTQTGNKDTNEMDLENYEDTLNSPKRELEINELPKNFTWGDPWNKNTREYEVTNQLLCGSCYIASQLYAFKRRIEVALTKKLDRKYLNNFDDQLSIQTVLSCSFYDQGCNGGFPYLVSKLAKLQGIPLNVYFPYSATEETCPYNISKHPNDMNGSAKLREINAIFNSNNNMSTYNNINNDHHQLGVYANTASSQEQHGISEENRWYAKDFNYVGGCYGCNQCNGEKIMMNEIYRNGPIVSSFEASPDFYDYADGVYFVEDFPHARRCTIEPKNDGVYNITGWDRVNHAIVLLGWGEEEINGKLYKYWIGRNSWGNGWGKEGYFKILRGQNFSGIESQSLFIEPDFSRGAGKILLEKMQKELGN

| Structure (SMILES) | % Inhibition @ 10 uM |
| --- | --- |
| Cc1cccc(OCC(=O)Nc2cccc(O)c2)c1 | 1.33% |
| CCC(=O)N1c2ccccc2N=C2CC(C)(C)CC(O)=C2C1c1ccccc1F (centres unmarked) | -2.54% |
| Cc1ccc([N+](=O)[O-])cc1NC1=NS(=O)(=O)c2ccccc21 | -5.96% |
| COc1ccc(/C=c2/sc3nc4ccccc4n3c2=O)cc1OC | -6.74% |
| CCCC(=O)Nc1nn2c(-c3ccccc3C)nnc2s1 | -1.56% |
| CCc1nn(CC(=O)N2CCC(C(N)=O)CC2)c(=O)c2cc3sccc3n12 | 3.4% |
| COc1cc(CN2CC(C)OC(C)C2)cc2c1OCO2 (centres unmarked) | -3.27% |
| Cc1ccc(S(=O)(=O)/N=S(\Cc2ccccc2)CC2CC2(Cl)Cl)cc1 (centres unmarked) | -0.0626% |
| Cc1ccnc(NC(=O)CC/N=c2/c(N3CCCC3)c(O)c2=O)c1 | -1.72% |
| C=C1C(C(=O)Nc2ccc(N3CCCCC3)cc2)C1C(=O)Nc1ccc(N2CCCCC2)cc1 (centres unmarked) | 1.71% |
| Cc1ccc(S(=O)(=O)[C@@H]2CCCC[C@H]2O)cc1 | 0.812% |
| COc1cc2c(cc1OC)C(c1cccc(F)c1)N(C)CC2 (centres unmarked) | -6.12% |
| CCC(C)NC(=O)c1cc2nc(-c3ccc(C)cc3)cc(C(F)(F)F)n2n1 (centres unmarked) | -1.1% |
| O=c1n(CN2CCOCC2)nc2n1-c1ccccc1SC2 | 23.5% |
| Cc1ccc(NC(=O)COc2cccc3ccc(C)nc23)c(Br)c1 | 3.49% |
| COC(=O)CCC1(C)CN(C)CCC1=O (centres unmarked) | 1.13% |
| CCOC(=O)N1CCN(c2c(N3CCc4ccccc4C3)c(=O)c2=O)CC1 | 0.277% |
| O=C(Nc1ccccc1)NC1CCCCCCC1 | -7.56% |
| O=C(CCN1C(=O)c2ccccc2C1=O)N1CCOCC1 | 3.04% |
| CCn1c2ccccc2c2cc(NC(=O)COc3ccc(C)cc3)ccc21 | -3.48% |
| Cc1cc(=O)n2c(C)csc2n1 | 2% |
| Cc1ccccc1N1C(=O)C2C3CCC(C3)C2C1=O (centres unmarked) | 0.992% |
| CC(NC(=O)CN1N=C(c2ccccc2)Oc2ccccc2C1=O)c1ccccc1 (centres unmarked) | -2.11% |
| CC/N=C1\S/C(=C\c2cccn2-c2ccc(N(C)C)cc2)C(=O)N1CC | 2.48% |
| c1coc(CN(Cc2ccco2)c2ncnc3c2oc2ccccc23)c1 | 0.605% |
| COc1ccccc1-c1cnc(OC(C)(C)C)nc1OC(C)(C)C | -5.21% |

| Structure (SMILES) | % Inhibition @ 10 uM |
| --- | --- |
| COc1ccc(-n2ncc3c(NCc4cccs4)ncnc32)cc1 | 7.33% |
| CCC(C(=O)O)n1nc(C)c2c(C)n(-c3ccc(C)cc3)nc2c1=O (centres unmarked) | -0.0309% |
| O=C(CN1C(=O)c2ccccc2C1=O)NC1CCCCNC1=O (centres unmarked) | 0.238% |
| COc1ccc(NC(=O)CN(c2cccc(OC)c2)S(=O)(=O)c2ccccc2)cc1 | 3.17% |
| O=C(COc1ccccc1)NC(Cc1ccccc1)C(=O)O (centres unmarked) | 2.05% |
| Cc1ccc(-n2cnnn2)c(Br)c1 | -3.49% |
| COc1ccccc1C1C(C(=O)c2ccccc2)=C(O)C(=O)N1Cc1cccnc1 (centres unmarked) | 4.66% |
| CC(C)NC(=O)C1CCCN(S(=O)(=O)N2CCC3(CC2)OCCO3)C1 (centres unmarked) | 0.0525% |
| CC(C)C[C@H](NC(=O)c1ccccc1C1CCCCC1)C(=O)NCC#N | 3.19% |
| CCOC(=O)N1CCC(NS(=O)(=O)c2ccc(-c3cc(C(F)(F)F)no3)s2)CC1 | 3.41% |
| Cc1c2cnn(CC(=O)NCCC(C)C)c(=O)c2c(C)n1Cc1ccccc1Cl | 1.22% |
| O=C(O)/C=C/c1ccc(S(=O)(=O)NCCO)cc1 | -6.83% |
| CC(=O)Nc1ccc(-c2csc(-c3c[nH]c4ccccc34)n2)cc1 | 46.6% |
| O=C(/C=C\Nc1ccc2c(c1)OCO2)c1ccc2c(c1)OCO2 | -1.07% |
| CCOc1ccc(N2C(=O)c3ccccc3NC2c2cc(OC)ccc2O)cc1 (centres unmarked) | -3.19% |
| N=C1/C(=C\c2ccco2)C(=O)N=C2SC(N3CCOCC3)=NN12 | -3.44% |
| Cc1cc(O)c(C2=Nc3ccccc3SC(c3cc(Cl)cc(Cl)c3O)C2)c(=O)o1 (centres unmarked) | -2.02% |
| O=S1(=O)CC=C(CNCc2ccccc2)C1 | -0.424% |
| CN(Cc1ccccc1)Cc1ccccn1 | -6% |
| Nc1cc(O)nc2nnc(SCc3ccc(Cl)cc3Cl)n12 | -4.85% |
| CCCCN(C)S(=O)(=O)c1cc(-c2nn(C)c(=O)c3ccccc23)ccc1C | 5.3% |
| Cc1ccc(NC(=O)C(=O)NC2CCCCC2)cc1C | -4.01% |
| COc1ccc2occ(CC(=O)Nc3sc4c(c3C#N)CCCC4)c2c1 | -1.53% |
| CC(=O)c1ccc2c(c1)N(C)c1ccccc1S2 | 3% |
| O=C(NCCN1CCOCC1)c1ccccc1Br | -9.7% |
| Nc1c(Cl)ncnc1NCCCn1ccnc1 | -1.52% |

| Structure (SMILES) | % Inhibition @ 10 uM |
| --- | --- |
| COc1ccc2c(CNCCc3ccc(OC)c(OC)c3)c(C(=O)O)n(C)c2c1 | 5.43% |
| O=S(=O)(c1ccc(F)cc1)N1CCCC(CO)C1 (centres unmarked) | -0.551% |
| CCn1nc(-c2cccc(Cl)c2)nc2c(=O)n(C)c(=O)nc1-2 | 2.19% |
| O=C1c2[nH]nc(-c3ccccc3O)c2C(c2cccc(Br)c2)N1CCCO (centres unmarked) | 9.54% |
| O=C(Cn1nc(-c2ccccc2)ccc1=O)NCCCN1CCOCC1 | -4.83% |
| COc1ccc(S(=O)(=O)Nc2c(O)oc3ccccc3c2=O)cc1OC | 3% |
| COc1cc(CNC(C)(C)CO)cc(Cl)c1OCc1ccc(F)cc1 | 7.74% |
| CCc1ccc(S(=O)(=O)NCc2csc(-c3ccccc3)n2)cc1 | 2.57% |
| CNc1nc(C(N)=O)nc(N2CCOCC2)n1 | 0.778% |
| CCOC(=O)c1cc(CC)sc1NC(N)=O | -0.273% |
| O=C(Nc1ccc(C(=O)N2CCCCC2)cc1)c1ccc(Br)cc1 | 3.53% |
| CC(C)C[C@H](NC(=O)c1ccnc(N(C)C)c1)C(=O)NCC#N | 0.744% |
| CCC(C)[C@H](NC(=O)N1CCN(C)CC1)C(=O)N[C@H]1CCN(Cc2ccccc2)C1 (some centres unmarked) | -0.778% |
| NS(=O)(=O)c1ccc(CCNC(=O)c2cccc(Cl)c2)cc1 | -12.8% |
| Cc1cc(=O)oc2c1c(C)nn2-c1nn[nH]n1 | -5.51% |
| NC(=O)c1c(NC(=O)c2cccs2)sc2c1CCC2 | 1.57% |
| Cn1c(=O)c2c(nc3n(CC(O)c4ccccc4)c(-c4ccc(Br)cc4)cn23)n(C)c1=O (centres unmarked) | -0.0925% |
| CC(C)CN1C(=O)c2ccccc2C(C(=O)Nc2ccc(Cl)cn2)C1c1cccs1 (centres unmarked) | -6.87% |
| O=C(CCn1c(=O)c2cccn2c2cccnc21)N1CCN(Cc2ccccc2)CC1 | 7.39% |
| COc1ccc(-c2nc(-c3ccc(OC)cc3)c(-c3ccc(OC)cc3)[nH]2)cc1 | -0.0369% |
| CCOC(=O)C1=C(CN2CCC3(CC2)OCCO3)NC(=O)NC1c1ccco1 (centres unmarked) | 2.39% |
| CCOC(=O)c1c(C)c(-c2ccccc2)n(CC(=O)NC(C)c2ccccc2)c1C (centres unmarked) | 0.0579% |
| CC(C)Nc1nc(Nc2ccc([N+](=O)[O-])cc2)nc(OC(C(F)(F)F)C(F)(F)F)n1 | 3.34% |
| CCN1C(=O)C(CC(=O)Nc2ccccc2)S/C1=N\c1ccc(Br)cc1 (centres unmarked) | -1.61% |
| COc1ccccc1CNCc1ccoc1 | 0.177% |
| CC1CCc2c(O)nc3ccccc3c2O1 (centres unmarked) | 0.385% |

| Structure (SMILES) | % Inhibition @ 10 uM |
| --- | --- |
| COc1ccc(C2CC(C(F)(F)F)n3nc(C(=O)N4CCCCC4C)c(Cl)c3N2)cc1OC (centres unmarked) | 6.42% |
| COc1ccc(C2NCCC3(O)CCCCC23)cc1Br (centres unmarked) | -5.48% |
| CC(C)(Oc1ccc2sc3ccccc3c2c1)C(=O)O | -4.72% |
| O=C(c1cc2ccccc2oc1=O)N(Cc1ccccc1F)C1CCS(=O)(=O)C1 (centres unmarked) | 5.17% |
| Cc1ccc(CNC(=O)C2CCC(CNS(=O)(=O)c3cccc4nsnc34)CC2)cc1 (centres unmarked) | -0.465% |
| O=C(NC(n1cnc2c(N3CCOCC3)ncnc21)C(Cl)(Cl)Cl)c1ccccc1 (centres unmarked) | 2.79% |
| Cn1c(=O)c2nc(Cl)n(Cc3ccccc3)c2n(C)c1=O | -8.76% |
| O=C(NCCc1ccccc1)c1ccc(Cl)s1 | -0.413% |
| O=C(Nc1cccc(O)c1)c1nn2c(c1Cl)NC(c1cccs1)CC2C(F)(F)F (centres unmarked) | -2.87% |
| OC(c1ccccc1)(c1ccccc1)c1nccn1Cc1ccccc1 | -0.0505% |
| OCCNCc1ccccc1OCc1ccccc1F | -3.5% |
| CNc1ccc(C(=O)N[C@@H](CC(C)C)C(=O)NCC#N)cc1 | 0.174% |
| COc1ccc(/C=C/C2=NN(c3ccc(Cl)cc3Cl)C(c3ccc(OC)cc3)C2)cc1 (centres unmarked) | -0.999% |
| CC(=O)ON(Cc1c(C)no[n+]1[O-])Cc1c(C)no[n+]1[O-] | -3.41% |
| C=CCNC(=O)/C(=C/c1ccc(Cl)cc1)NC(=O)c1ccccc1 | 2.3% |
| COc1ccc(-c2cc(C(=O)Nc3cc(C)n(CC(=O)NCc4ccco4)n3)on2)cc1OC | 3.27% |
| CCOC(=O)c1c(NC(=O)Nc2nnc(N(C)Cc3ccccc3)s2)sc2c1CCCC2 | 3.87% |
| COc1ccc(C2C3=C(O)CC(C)(C)CC3=NC(C)=C2C(=O)OCc2ccccc2)cc1 (centres unmarked) | 24.6% |
| COc1ccc(OC)c(CCNC(=O)c2cc3ccc4cccnc4c3[nH]2)c1 | -1.79% |
| COc1cc(CN2CCN(S(=O)(=O)c3ccc(C)cc3)CC2)cc(OC)c1OC | 2.26% |
| COc1ccc2sc(N(CCN(C)C)C(=O)c3ccccc3Cl)nc2c1 | 4.64% |
| CC1SC2(C(=O)Nc3ccccc32)N(c2ccc(Cl)cc2)C1=O (centres unmarked) | -3.69% |
| Oc1c2c(nc3c(-c4ccc(Cl)cc4)cnn13)CCCC2 | -1.66% |
